# According to patent publication US10358436B2, “Kinase inhibitors and method of treating cancer” (University Health Network, priority 2010, dated 2019):
# What was measured:
# Assay in all cases: cells
# [1] = system: HCC1954 basal breast cancer cell line; settings: Homo sapiens, HCC1954, 120 h
# [2] = system: SW620 colon cancer cell line; settings: Homo sapiens, SW-620, 120 h, read-out: Cell Line GI50 Range SW-620
# [3] = system: human mammary epithelial primary cells (HMEC); settings: 120 h, read-out: Cell Line GI50 Range HMEC
# [4] = system: A549 lung cancer cell line; settings: Homo sapiens, A549, 120 h, read-out: Cell Line GI50 Range A-549
# [5] = system: MCF-7 luminal breast cancer cell line; settings: Homo sapiens, MCF7, 120 h
# [6] = system: MDA-MB-468 basal breast cancer cell line; settings: Homo sapiens, MDA-MB-468, 120 h
# [7] = read-out: Cell Line GI50 Range HCC-1954
# [8] = read-out: Cell Line GI50 Range MCF-7
# [9] = read-out: Cell Line GI50 Range MDA-MB-468
# [10] = read-out: Cell Line GI50 Range HCC-1954, HCC1954 basal breast cancer cell line, SRB assay, 5 days
# [11] = read-out: Cell Line GI50 Range MCF-7, MCF-7 luminal breast cancer cell line, SRB assay, 5 days
# [12] = read-out: Cell Line GI50 Range MDA-MB-468, MDA-MB-468 basal breast cancer cell line, SRB assay, 5 days
GI50 [2],GI50 [4],"GI50 [6, 9]","GI50 [1, 10]","GI50 [5, 11]",SMILES,"GI50 [1, 7]",GI50 [3],"GI50 [5, 8]","GI50 [6, 12]"
< 100 nM,,< 100 nM,< 100 nM,< 100 nM,"COc1ccc2c(c1)[C@]1(C[C@H]1c1ccc3c(/C=C/c4ccc(N5CCN(C(C)C)CC5)cc4)n[nH]c3c1)C(=O)N2 (relative stereo) [Example A189, (1R*,2S*)-(E)-2-(3-(4-(4-isopropylpiperazin-1-yl)styryl)-1H-indazol-6-yl)-5′-methoxyspiro[cyclopropane-1,3′-indolin]-2′-one 2,2,2-trifluoroacetate]",,1000 to 10000 nM,,
,< 100 nM,< 100 nM,< 100 nM,< 100 nM,"CCN1Cc2ccc(/C=C/c3n[nH]c4cc([C@@H]5C[C@@]56C(=O)Nc5ccc(OC)cc56)ccc34)cc2C1 (relative stereo) [Example A190, (1R*,2S*)-2-(3-((E)-2-(2-ethylisoindolin-5-yl)vinyl)-1H-indazol-6-yl)-5′-methoxyspiro[cyclopropane-1,3′-indolin]-2′-one 2,2,2-trifluoroacetate]",,1000 to 10000 nM,,
1000 to 10000 nM,1000 to 10000 nM,100 to 1000 nM,,,"COc1ccc2c(c1)[C@]1(C[C@H]1c1ccc3c(-c4ccc5nccn5c4)n[nH]c3c1)C(=O)N2 [Example A107, (1R,2S)-2-(3-(imidazo[1,2-a]pyridin-6-yl)-1H-indazol-6-yl)-5′-methoxyspiro[cyclopropane-1,3′-indolin]-2′-one 2,2,2-trifluoroacetate]",> 10000 nM,,1000 to 10000 nM,
< 100 nM,< 100 nM,< 100 nM,1000 to 10000 nM,< 100 nM,"COc1ccc2c(c1)[C@]1(C[C@H]1c1ccc3c(-c4ccc(N(C)CCN(C)C)cc4)n[nH]c3c1)C(=O)N2 [Example A129, (1R,2S)-2-(3-(4-((2-(dimethylamino)ethyl)(methyl)amino)phenyl)-1H-indazol-6-yl)-5′-methoxyspiro[cyclopropane-1,3′-indolin]-2′-one 2,2,2-trifluoroacetate]",,,,
,< 100 nM,< 100 nM,100 to 1000 nM,< 100 nM,"COc1ccc2c(c1)[C@]1(C[C@H]1c1ccc3c(/C=C/c4cccc(CN(C)C)c4)n[nH]c3c1)C(=O)N2 [Example A134, (1R,2S)-2-(3-(3-((dimethylamino)methyl)styryl)-1H-indazol-6-yl)-5′-methoxyspiro[cyclopropane-1,3′-indolin]-2′-one 2,2,2-trifluoroacetate]",,> 10000 nM,,
100 to 1000 nM,100 to 1000 nM,100 to 1000 nM,> 10000 nM,100 to 1000 nM,"Cc1ccc(/C=C/c2n[nH]c3cc([C@@H]4C[C@@]45C(=O)Nc4ccccc45)ccc23)cn1 [Example A150, (1R,2S)-2-(3-((E)-2-(6-methylpyridin-3-yl)vinyl)-1H-indazol-6-yl)spiro[cyclopropane-1,3′-indolin]-2′-one]",,,,
< 100 nM,< 100 nM,< 100 nM,< 100 nM,< 100 nM,"COc1ccc2c(c1)[C@]1(C[C@H]1c1ccc3c(/C=C/c4ccc(CCN5CCOCC5)cc4)n[nH]c3c1)C(=O)N2 [Example A177, (1R,2S)-(E)-5′-methoxy-2-(3-(4-(2-morpholinoethyl)styryl)-1H-indazol-6-yl)spiro[cyclopropane-1,3′-indolin]-2′-one 2,2,2-trifluoroacetate]",,,,
< 100 nM,< 100 nM,< 100 nM,> 10000 nM,< 100 nM,"COc1ccc2c(c1)[C@]1(C[C@H]1c1ccc3c(/C=C/c4ccc(CN5CCOCC5)c(F)c4)n[nH]c3c1)C(=O)N2 [Example A199, (1R,2S)-(E)-2-(3-(3-fluoro-4-(morpholinomethyl)styryl)-1H-indazol-6-yl)-S-methoxyspiro[cyclopropane-1,3′-indolin]-2′-one 2,2,2-trifluoroacetate]",,,,
< 100 nM,< 100 nM,< 100 nM,1000 to 10000 nM,> 10000 nM,"O=C1Nc2ccccc2[C@]12C[C@H]2c1ccc2c(/C=C/c3ccc(CN4CCOCC4)c(F)c3)n[nH]c2c1 [Example A200, (1R,2S)-(E)-2-(3-(3-fluoro-4-(morpholinomethyl)styryl)-1H-indazol-6-yl)spiro[cyclopropane-1,3′-indolin]-2′-one 2,2,2-trifluoroacetate]",,,,
< 100 nM,< 100 nM,< 100 nM,,,"COc1ccc2c(c1)[C@]1(C[C@H]1c1ccc3c(/C=C/c4ccc(CN5[C@H](C)CCC[C@@H]5C)cc4)n[nH]c3c1)C(=O)N2 [Example A203, (1R,2S)-(E)-2-(3-(4-((cis-2,6-dimethylpiperidin-1-yl)methyl)styryl)-1H-indazol-6-yl)-5′-methoxyspiro[cyclopropane-1,3′-indolin]-2′-one 2,2,2-trifluoroacetate]",1000 to 10000 nM,,< 100 nM,
< 100 nM,< 100 nM,< 100 nM,> 10000 nM,1000 to 10000 nM,"O=C1Nc2ccccc2[C@]12C[C@H]2c1ccc2c(/C=C/c3ccc(OCCN4CCOCC4)cc3)n[nH]c2c1 [Example A204, (1R,2S)-(E)-2-(3-(4-(2-morpholinoethoxy)styryl)-1H-indazol-6-yl)spiro[cyclopropane-1,3′-indolin]-2′-one 2,2,2-trifluoroacetate]",,,,

# More lines, now with the values behind:
SMILES,GI50 [2],GI50 [4],"GI50 [6, 9]","GI50 [1, 10]","GI50 [5, 11]","GI50 [1, 7]",GI50 [3],"GI50 [5, 8]","GI50 [6, 12]"
"CN(C)Cc1ccc(/C=C/c2n[nH]c3cc([C@@H]4C[C@@]45C(=O)N(CC(N)=O)c4ccccc45)ccc23)cc1 (relative stereo) [Example A160, 2-((1R*,2S*)-(E)-2-(3-(4-((dimethylamino)methyl)styryl)-1H-indazol-6-yl)-2′-oxospiro[cyclopropane-1,3′-indoline]-1′-yl)acetamide 2,2,2-trifluoroacetate]",< 100 nM,< 100 nM,< 100 nM,,,< 100 nM,> 10000 nM,1000 to 10000 nM,
"COc1ccc2c(c1)[C@@]1(C[C@@H]1c1ccc3c(-c4ccc(N5CCN(C)CC5)nc4)n[nH]c3c1)C(=O)N2 (stereo in doubt) [Example A16, (1S,2R)-5′-methoxy-2-(3-(6-(4-methylpiperazin-1-yl)pyridin-3-yl)-1H-indazol-6-yl)spiro[cyclopropane-1,3′-indolin]-2′-one]",1000 to 10000 nM,< 100 nM,,1000 to 10000 nM,,,> 10000 nM,< 100 nM,100 to 1000 nM
"O=C1Nc2ccccc2[C@]12C[C@H]2c1ccc2c(/C=C/c3csc(CN4CCOCC4)n3)n[nH]c2c1 [Example A77, (1R,2S)-2-(3-((E)-2-(2-(morpholinomethyl)thiazol-4-yl)vinyl)-1H-indazol-6-yl)spiro[cyclopropane-1,3′-indolin]-2′-one 2,2,2-trifluoroacetate salt]",100 to 1000 nM,100 to 1000 nM,100 to 1000 nM,,,1000 to 10000 nM,,1000 to 10000 nM,
"COc1ccc2c(c1)[C@]1(C[C@H]1c1ccc3c(-c4ccc(N5CCN(C(C)C)CC5)cc4)n[nH]c3c1)C(=O)N2 [Example A97, (1R,2S)-2-(3-(4-(4-isopropylpiperazin-1-yl)phenyl)-1H-indazol-6-yl)-5′-Methoxyspiro[cyclopropane-1,3′-indolin]-2′-one 2,2,2-trifluoroacetate]",< 100 nM,< 100 nM,< 100 nM,,,100 to 1000 nM,> 10000 nM,< 100 nM,
"COc1ccc2c(c1)[C@]1(C[C@H]1c1ccc3c(/C=C/c4ccc(CN5CCOCC5)cc4)n[nH]c3c1)C(=O)N2C [Example A102, (1R,2S)-(E)-5′-methoxy-1′-methyl-2-(3-(4-(morpholinomethyl)styryl)-1H-indazol-6-yl)spiro[cyclopropane-1,3′-indolin]-2′-one hydrochloride]",100 to 1000 nM,< 100 nM,< 100 nM,,,> 10000 nM,,1000 to 10000 nM,
"COc1ccc2c(c1)[C@]1(C[C@H]1c1ccc3c(-c4ccc(OCCn5ccnc5)cc4)n[nH]c3c1)C(=O)N2 [Example A108, (1R,2S)-2-(3-(4-(2-(1H-imidazol-1-yl)ethoxy)phenyl)-1H-indazol-6-yl)-5′-methoxyspiro[cyclopropane-1,3′-indolin]-2′-one 2,2,2-trifluoroacetate]",1000 to 10000 nM,100 to 1000 nM,100 to 1000 nM,,,1000 to 10000 nM,,100 to 1000 nM,
"CN1CCN(c2ccc(/C=C/c3n[nH]c4cc([C@@H]5C[C@@]56C(=O)N(C)c5ccccc56)ccc34)cn2)CC1 [Example A110, (1R,2S)-1′-methyl-2-(3-((E)-2-(6-(4-methylpiperazin-1-yl)pyridin-3-yl)vinyl)-1H-indazol-6-yl)spiro[cyclopropane-1,3′-indolin]-2′-one bis(2,2,2-trifluoroacetate)]",< 100 nM,< 100 nM,< 100 nM,,,< 100 nM,,< 100 nM,
"COc1ccc2c(c1)[C@]1(C[C@H]1c1ccc3c(-c4ccc(N5C[C@@H](C)N[C@@H](C)C5)cc4)n[nH]c3c1)C(=O)N2 [Example A126, (1R,2S)-2-(3-(4-(cis-3,5-dimethylpiperazin-1-yl)phenyl)-1H-indazol-6-yl)-5′-methoxyspiro[cyclopropane-1,3′-indolin]-2′-one 2,2,2-trifluoroacetate]",< 100 nM,< 100 nM,,1000 to 10000 nM,,,,< 100 nM,< 100 nM

# Structures can show the parent of a compound that is named as a salt. Where two headings read alike, the source gives them in different places.
